In general, GI50 refers to the concentration at which growth is held to half of that of the control. A low value points to greater sensitivity of the cells. For orientation: TGI means the concentration giving total growth inhibition. A higher TGI goes with lower sensitivity of the cells.

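A five-concentration, 48-hour dose response in 96-well plates underlies each endpoint, interpolated linearly between surrounding concentrations. GI50: concentration for 50% inhibition of growth.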 For part of its entries the source gives two or more results. This is not the full list of results. An entry can have further records. For part of these data: Values that stand side by side are repeated measurements in other runs, samples, wells, individuals or studies. What stands in brackets tells the records apart. Letters hold for one entry only.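 The concentration for full growth arrest is given as TGI.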 For part of these data: The tests behind the records often covered other concentration ranges, which the source does not state; some values may only mark the edge of a range.

Some test systems named below: SF-539 CNS; EKVX NSCLC; HCT-116 colon; HS 578T breast; LOX IMVI melanoma; NCI-H460 lung; NCI/ADR-RES ovarian; SK-OV-3 ovarian; T-47D breast; CAKI-1 renal; CCRF-CEM leukemia; SK-MEL-2 melanoma; HOP-92 NSCLC; SNB-75 CNS; K-562 leukemia; SR leukemia.
Common to all, as to assay: DTP human tumour cell line panel, 48 h

Consider `N#Cc1c2c(c(-c3cccs3)n(C3OC(CO)C(O)C(O)C3O)c1=S)CCc1ccccc1-2` (stereo not drawn), for which the GI50 with SF-539 CNS was 8.01 µM [sample A, mean of 2 tests] and > 100 µM [sample B, mean of 2 tests].
Regarding `CCC1(O)CC(OC2CC(N(C)C)C(OC3CC(O)C(OC4CCC(=O)C(C)O4)C(C)O3)C(C)O2)c2c(O)c3c(c(O)c2C1C(=O)OC)C(=O)c1cccc(O)c1C3=O` (stereo not drawn), the TGI with EKVX NSCLC was 169 nM and 15.3 nM; in the test on HCT-116 colon, 300 nM and 11 µM; in the test on HS 578T breast, 22.1 nM and 1.27 µM; in the test on LOX IMVI melanoma, 112 nM and 3.24 µM; with NCI-H460 lung, 15.2 nM and 1.17 µM; in the test on NCI/ADR-RES ovarian, 195 nM and 11.8 µM. For the same molecule, the TGI with SK-OV-3 ovarian is 177 nM and 9.31 µM; with T-47D breast, 73 nM and 5.21 µM.
Take `CC(=O)C1(O)Cc2c(O)c3c(c(O)c2C(OC2CC(N)C(O)C(C)O2)C1)C(=O)c1ccccc1C3=O` (stereo not drawn): the TGI in the test on CAKI-1 renal was 209 nM and 15.4 nM; with CCRF-CEM leukemia, 29.8 nM and 320 nM; in the test on SK-MEL-2 melanoma, 810 nM and 50.6 nM.
In the case of `COc1cc(C2c3cc4c(cc3[C@@H](Nc3ccc(N)cc3)C3COC(=O)[C@H]23)OCO4)cc(OC)c1O` (stereo partly drawn), the TGI in the test with HOP-92 NSCLC is 875 nM and 13 µM; with SNB-75 CNS, 953 nM and 24 µM.
In the case of `CCCCCc1c(C)[nH]c(/C=C2\N=C(c3ccc[nH]3)C=C2OCc2ccccc2)c1C`, the TGI in the test on CAKI-1 renal is 1.36 µM and 102 nM; in the test on CCRF-CEM leukemia, 1.22 µM and > 100 µM; with K-562 leukemia, 1.25 µM and > 100 µM; with SR leukemia, 67.6 nM and > 100 µM.

Source of the values: PubChem BioAssay (NCI).
